From the supplement of paper PMC8728848
The other results are listed elsewhere or left out.

Columns and labels:
Test in all cases: glycan array binding signal (z-score within array); higher = stronger binding
Settings in all cases: glycan notation: IUPAC condensed, linker removed
[1] = target: Neu5Ac(a2-3)Gal(b1-4)GlcNAc(b1-3)Gal
Procedure, shortened: (§1)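 The binding signal is a Z-score computed within each array. Data were drawn from 3228 arrays in the Consortium for Functional Glycomics database, restricted to those with a known protein sequence. Scores were averaged over arrays of the same protein sequence at different concentrations or buffers, and over linkers, and negative values can be taken as non-binding.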

[2] = target: Neu5Ac(a2-3)Gal(b1-4)GlcNAc(b1-3)Gal(b1-3)GlcNAc
Procedure, shortened: as §1

[3] = target: Neu5Ac(a2-3)Gal(b1-4)GlcNAc(b1-3)Gal(b1-4)GlcNAc
Procedure, shortened: as §1

[4] = target: Neu5Ac(a2-3)Gal(b1-4)GlcNAc(b1-3)Gal(b1-4)GlcNAc(b1-3)Gal(b1-4)GlcNAc
Procedure, shortened: as §1

[5] = target: Neu5Ac(a2-3)Gal(b1-4)GlcNAc(b1-3)Gal(b1-4)[Fuc(a1-3)]GlcNAc
Procedure, shortened: as §1

[6] = target: Neu5Ac(a2-3)Gal(b1-4)GlcNAc(b1-3)GalNAc
Procedure, shortened: as §1

[7] = target: Neu5Ac(a2-3)Gal(b1-4)GlcNAc(b1-6)[Gal(b1-3)]GalNAc
Procedure, shortened: as §1

[8] = target: Neu5Ac(a2-3)Gal(b1-4)GlcNAc(b1-6)[Neu5Ac(a2-3)Gal(b1-3)]GalNAc
Procedure, shortened: as §1

[9] = target: Neu5Ac(a2-3)Gal(b1-4)GlcNAc6S
Procedure, shortened: as §1

[10] = target: Neu5Ac(a2-3)Gal(b1-4)[Fuc(a1-3)]GlcNAc
Procedure, shortened: as §1

[11] = target: Neu5Ac(a2-3)Gal(b1-4)[Fuc(a1-3)]GlcNAc(b1-3)Gal
Procedure, shortened: as §1

[12] = target: Neu5Ac(a2-3)Gal(b1-4)[Fuc(a1-3)]GlcNAc(b1-3)Gal(b1-4)GlcNAc
Procedure, shortened: as §1

[13] = target: Neu5Ac(a2-3)Gal(b1-4)[Fuc(a1-3)]GlcNAc(b1-3)Gal(b1-4)[Fuc(a1-3)]GlcNAc(b1-3)Gal(b1-4)[Fuc(a1-3)]GlcNAc
Procedure, shortened: as §1

[14] = target: Neu5Ac(a2-3)Gal(b1-4)[Fuc(a1-3)]GlcNAc(b1-3)GalNAc
Procedure, shortened: as §1

[15] = target: Neu5Ac(a2-3)Gal(b1-4)[Fuc(a1-3)]GlcNAc(b1-6)[Gal(b1-3)]GalNAc
Procedure, shortened: as §1

[16] = target: Neu5Ac(a2-3)Gal(b1-4)[Fuc(a1-3)]GlcNAc6S
Procedure, shortened: as §1

[17] = target: Neu5Ac(a2-3)Gal6S(b1-4)GlcNAc
Procedure, shortened: as §1

[18] = target: Neu5Ac(a2-3)Gal6S(b1-4)[Fuc(a1-3)]GlcNAc
Procedure, shortened: as §1

Neu5Ac(a2-3)GalNAc = target: Neu5Ac(a2-3)GalNAc
Procedure, shortened: as §1

[19] = target: Neu5Ac(a2-3)GalNAc(b1-4)GlcNAc
Procedure, shortened: as §1

[20] = target: Neu5Ac(a2-3)[GalNAc(b1-4)]Gal(b1-4)Glc
Procedure, shortened: as §1

[21] = target: Neu5Ac(a2-3)[GalNAc(b1-4)]Gal(b1-4)GlcNAc
Procedure, shortened: as §1

[22] = target: Neu5Ac(a2-3)[GalNAc(b1-4)]Gal(b1-4)GlcNAc(b1-3)GalNAc
Procedure, shortened: as §1

[23] = target: Neu5Ac(a2-3)[Neu5Ac(a2-6)]GalNAc
Procedure, shortened: as §1

Neu5Ac(a2-6)Gal = target: Neu5Ac(a2-6)Gal
Procedure, shortened: as §1

[24] = target: Neu5Ac(a2-6)Gal(b1-3)GlcNAc(b1-3)[Gal(b1-4)GlcNAc(b1-6)]Gal(b1-4)Glc
Procedure, shortened: as §1

Neu5Ac(a2-6)Gal(b1-4)Glc = target: Neu5Ac(a2-6)Gal(b1-4)Glc
Procedure, shortened: as §1

[25] = target: Neu5Ac(a2-6)Gal(b1-4)GlcNAc
Procedure, shortened: as §1

[26] = target: Neu5Ac(a2-6)Gal(b1-4)GlcNAc(b1-2)Man(a1-3)Man(b1-4)GlcNAc(b1-4)GlcNAc
Procedure, shortened: as §1

[27] = target: Neu5Ac(a2-6)Gal(b1-4)GlcNAc(b1-2)Man(a1-3)[Gal(b1-4)GlcNAc(b1-2)Man(a1-6)]Man(b1-4)GlcNAc(b1-4)GlcNAc
Procedure, shortened: as §1

[28] = target: Neu5Ac(a2-6)Gal(b1-4)GlcNAc(b1-2)Man(a1-3)[GlcNAc(b1-2)Man(a1-6)]Man(b1-4)GlcNAc(b1-4)GlcNAc
Procedure, shortened: as §1

[29] = target: Neu5Ac(a2-6)Gal(b1-4)GlcNAc(b1-2)Man(a1-3)[GlcNAc(b1-2)Man(b1-4)GlcNAc(b1-2)Man(a1-6)]Man(b1-4)GlcNAc(b1-4)GlcNAc
Procedure, shortened: as §1

[30] = target: Neu5Ac(a2-6)Gal(b1-4)GlcNAc(b1-2)Man(a1-3)[Man(a1-6)]Man(b1-4)GlcNAc(b1-4)GlcNAc
Procedure, shortened: as §1

[31] = target: Neu5Ac(a2-6)Gal(b1-4)GlcNAc(b1-2)Man(a1-3)[Neu5Ac(a2-6)Gal(b1-4)GlcNAc(b1-2)Man(a1-6)]Man(b1-4)GlcNAc(b1-4)GlcNAc
Procedure, shortened: as §1

[32] = target: Neu5Ac(a2-6)Gal(b1-4)GlcNAc(b1-2)Man(a1-6)Man(b1-4)GlcNAc(b1-4)GlcNAc
Procedure, shortened: as §1

B1: Gz-CVNH (Gibberella zeae) (protein)
chain: MGSSHHHHHHSSGLVPRGSHMGNFHESSNNIWLEDGHILHAECGNGEGDYVESTLDLDYYIGNDDGSFSWGGENFSGSASNITLDIEGDDNIPVLRAELNPMDGDPVEANVNLSERIGNDCGTLIFLA
glycan array binding signal (z-score) [1]: -0.095 | glycan array binding signal (z-score) [2]: -0.154 | glycan array binding signal (z-score) [3]: -0.128 | glycan array binding signal (z-score) [4]: -0.115 | glycan array binding signal (z-score) [5]: -0.121 | glycan array binding signal (z-score) [6]: -0.158 | glycan array binding signal (z-score) [7]: -0.115 | glycan array binding signal (z-score) [8]: -0.127 | glycan array binding signal (z-score) [9]: -0.146 | glycan array binding signal (z-score) [10]: -0.139 | glycan array binding signal (z-score) [11]: -0.132 | glycan array binding signal (z-score) [12]: -0.028 | glycan array binding signal (z-score) [13]: -0.11 | glycan array binding signal (z-score) [14]: -0.034 | glycan array binding signal (z-score) [15]: 0.047 | glycan array binding signal (z-score) [16]: -0.128 | glycan array binding signal (z-score) [17]: -0.143 | glycan array binding signal (z-score) [18]: -0.142 | glycan array binding signal (z-score) (Neu5Ac(a2-3)GalNAc): -0.152 | glycan array binding signal (z-score) [19]: -0.117 | glycan array binding signal (z-score) [20]: -0.155 | glycan array binding signal (z-score) [21]: -0.136 | glycan array binding signal (z-score) [22]: -0.104 | glycan array binding signal (z-score) [23]: -0.147 | glycan array binding signal (z-score) (Neu5Ac(a2-6)Gal): -0.103 | glycan array binding signal (z-score) [24]: -0.108 | glycan array binding signal (z-score) (Neu5Ac(a2-6)Gal(b1-4)Glc): -0.13 | glycan array binding signal (z-score) [25]: -0.149 | glycan array binding signal (z-score) [26]: -0.135 | glycan array binding signal (z-score) [27]: -0.139 | glycan array binding signal (z-score) [28]: -0.048 | glycan array binding signal (z-score) [29]: -0.09 | glycan array binding signal (z-score) [30]: -0.122 | glycan array binding signal (z-score) [31]: -0.097 | glycan array binding signal (z-score) [32]: -0.134
